Several values for one entry are separate records, joined by “and”; a condition that tells them apart may be missing. Identical values can stand only once.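 Protocol summary: plate cells (96-well), add compound at 5 concentrations, incubate 48 h, interpolate endpoints linearly. GI50 is the concentration that inhibits growth by half. TGI: concentration producing complete growth inhibition.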
test system: NCI-H322M lung; experiment: growth of human tumour cells (NCI), 48 h

Row | Structure (SMILES) | TGI [µM] | GI50
1 | N#Cc1cccc(-n2[nH]c(=O)ccc2=O)c1 | > 100 | 
2 | NC(Cc1ccccc1)C(=O)NC(Cc1ccccc1)NC(=O)C(Cc1c[nH]c2ccccc12)C(=O)O (stereo unspecified) | > 100 | 
3 | Cc1cc(OC(=O)Nc2cccc3ccccc23)c(C(C)C)cc1C(=S)Nc1ccccc1 | 60.7 | 
4 | Cc1ccc(S(=O)(=O)N2C3C=CC(C3)[C@@H]2C(Cl)(Cl)Cl)cc1 (stereo partly specified) | > 100 | 
5 | CCOC(=O)CCCSCCCC(=O)CCCSCCCC(=O)OCC | > 100 | 
6 | CCOC(=O)C1Sc2ccccc2N=C1C (stereo unspecified) | > 100 | 
7 | O=c1[nH]c(=O)c2c3n(cc2[nH]1)CCCCC3 | > 100 | 
8 | Cc1cn(C2OC(CO[Si](C)(C)C(C)(C)C)C(N(C)O[Si](C)(C)C(C)(C)C)C2[Se]c2ccccc2)c(=O)[nH]c1=O (stereo unspecified) | 53.3 | 
9 | O=C(O)Cc1ccc([N+](=O)[O-])cc1[N+](=O)[O-] | > 100 | 
10 | C=CCNC(=S)N/C=C(\C#N)C(N)=O | > 100 | 
11 | O=C(C(=O)n1ccc2ccccc21)n1ccc2ccccc21 | > 100 | 
12 | O=C1/C(=C/c2ccco2)NC(=S)N1CN1CCCCC1 | > 100 | 
13 | CN(C)C=Nc1nc(=O)n(C2CCC(CO)O2)cc1F (stereo unspecified) | > 100 | 
14 | OC(c1cc(C(F)(F)F)nc2c(C(F)(F)F)cccc12)C1CCCCN1 (stereo unspecified) | 14.4 | 3.77 µM
15 | COc1ccc(C(SCCO)(c2ccccc2)c2ccc(OC)cc2)cc1 | 13.5 | 
16 | C[N+]12C=CC=C1C(N1CCCC1)c1scc(-c3ccc(Br)cc3)c12 (stereo unspecified) | > 100 | 
17 | CCOC(=O)c1cc(-c2ccc(OC)cc2)c([N+](=O)[O-])n1C | > 10 | 
18 | COC(=O)c1cc2oc(/C=C3/SC(=S)N(NC(C)=O)C3=O)cc2n1C | 86.8 | 20.6 µM
19 | O=C(O)C(Cl)Cl | > 10000 | 5970 µM and > 10000 µM
20 | O=C(Nc1nn2c(-c3cc(C(F)(F)F)cc(C(F)(F)F)c3)nnc2s1)C1CCCC1 | > 30.3 | 0.705 µM
21 | Cn1cc(-c2cc3c(N4CCN(c5ncc([C@@](C)(N)c6ccc(F)cc6)cn5)CC4)ncnn3c2)cn1 | > 100 | > 100 µM
22 | COc1ccc(NC(=S)c2ccc(CN3CCCCC3)s2)cc1 | 33.3 | 
23 | Nc1ncc2c(n1)-c1ccccc1OC2N1CCCCC1 (stereo unspecified) | > 100 | 
24 | O=c1c2cccnc2ncn1CCN1CCCCC1 | > 100 | 
25 | COc1ccc2ncnc(Nc3ccc(OCc4ccccc4)cc3)c2c1 | > 21 | 5.3 µM
26 | O=C(/C=C/c1c(O)ccc2ccccc12)c1ccc([N+](=O)[O-])cc1 | > 100 | 

Row | Structure (SMILES) | TGI [µM] | GI50
27 | CN(C)c1ccc(/C=N/NC(=S)Nc2ccccc2)cc1 | > 100 | 
28 | CSC(=O)c1sc(SC)[n+](-c2ccccc2)c1O | 30.7 | 
29 | N#CC(C(=O)CCC(=O)Nc1ccc(Cl)c(Cl)c1)c1ccccc1 (stereo unspecified) | > 100 | 
30 | O=C(O)CSc1n[nH]c(-c2ccccc2O)n1 | > 100 | 
31 | C[C@]12c3c4cc(NC(=O)C(=O)NCc5ccc(-c6ccccn6)nc5)cc3Oc3cc(NC(=O)C(=O)NCc5ccc(-c6ccccn6)nc5)cc(c31)OC1C=C(NC(=O)C(=O)NCc3ccc(-c5ccccn5)nc3)C=C(O4)C12 (stereo partly specified) | 55.4 | 
32 | NC(=S)N/N=C1\c2cc(Cl)ccc2-c2c1cc(Cl)cc2[N+](=O)[O-] | > 100 | 10.9 µM
33 | CN1C(=O)C(=O)N2c3ccc(Cl)cc3C3(c4ccccc4)N=CC12O3 (stereo unspecified) | 25.6 | 
34 | O=[N+]([O-])c1cc([N+](=O)[O-])c(C(F)(F)F)cc1NN=C(c1ccc(O)cc1)c1ccc(O)cc1 | 31.8 | 8.2 µM
35 | O=C1c2ccccc2C(=O)c2c(/C=C\N3CCCCC3)ccnc21 | 6.9 | 
36 | CCOC(=O)/C(C#N)=C/c1coc2cc(C)cc(C)c2c1=O | > 100 | 
37 | COC(=O)c1ccc(Cc2cc(Cc3ccc(C(=O)OC)cc3)cc(Cc3ccc(C(=O)OC)cc3)c2)cc1 | > 25 | 
38 | COc1ccc(CN2C(=O)C(Cl)=C(Nc3cccc(C(F)(F)F)c3)C2=O)cc1 | > 100 | 6.75 µM
39 | NCCNCCNCCN | > 100 | > 100 µM
40 | O=C1NC(=NCc2ccccc2)S/C1=C\c1ccc2ncccc2c1 | > 25 | > 25 µM
41 | COc1ccc(C(c2cc(OC)c(OC)c(OC)c2)n2cncn2)cc1O (stereo unspecified) | > 100 | 0.696 µM
42 | C/C(=N\NC(N)=S)c1ccc2c(c1)Sc1ccccc1O2 | > 100 | 
43 | NC(=S)N/N=C\c1nccc2c(C(F)(F)F)cccc12 | > 73.4 | 0.227 µM
44 | O=c1[nH]c2cc(Cl)ccc2nc1/C(=N\Nc1ccccc1)C(O)c1ccc(Cl)c(Cl)c1 (stereo unspecified) | > 100 | 
45 | COc1c(CC(C)=O)ccc2c1C(=O)c1ccc(C=O)c(OC(C)=O)c1C2=O | 54.7 | 
46 | S=P1(Oc2ccccc2)NNP2(=NP(N3CC3)(N3CC3)=NP(N3CC3)(N3CC3)=N2)NN1 (stereo unspecified) | > 100 | 
47 | O=c1[nH]c(=O)n(C2COC(CO)C2O)cc1F (stereo unspecified) | > 100 | 
48 | COc1cc(S(=O)(=O)Nc2ccc(-c3csc(N4C(=O)CSC4c4cccc(Oc5ccccc5)c4)n3)cc2)ccc1Cl (stereo unspecified) | > 100 | 
49 | C[C@@H]1CC[C@H]2C(C)(C)[C@H]3C[C@@]12CC[C@@]3(C)O | > 100 | 
50 | CC1NC(=O)C(C)C(c2ccccc2)N(N=O)C1c1ccccc1 (stereo unspecified) | > 100 | 
51 | Br[Se]c1ccccn1 | 32.6 | 
52 | CCNC(=O)C#Cc1ccc2c(C(=Nc3ccc(CN(C)C)cc3)c3ccccc3)c(O)[nH]c2c1 | > 7.94 | 0.293 µM

From PubChem BioAssay (NCI)
